Reference: PubChem BioAssay AID1508624 (National Center for Advancing Translational Sciences (NCATS), 2021)
Hit rate of the full screen: of about 48,000 compounds, about 120 (0.25%) were called active. About 4% were inconclusive and are not listed. Calls follow the shape of the dose curve; as a rule, active = well fitted activation curve with a large enough effect; inconclusive = small, poorly fitted or top-dose-only effect, or another doubt; inactive = no such curve, though single readings can be large or run the other way. The list shows a part of the results.

Assay: Primary qHTS for Identification of Small Molecule Activators of Huntingtin-Antisense Promoter Activity; also: nearly all actives have a fitted effect of over 55% in size
Conditions: HEK293 HTT-AS promoter firefly luciferase reporter (activity 0% = vehicle and -100% = no light), 24 h; series mostly up to 57.5 µM; activity change, positive = activation: at the top concentration
Procedure, shortened: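 Quantitative HTS used concentration series of up to 57.5 uM final on HEK293 luciferase reporter cells, 24 h at 37 degrees C. Readout was Dual-Glo firefly luminescence.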

Activity change, positive = activation, inactive:
Cc1cc(NC(=O)CSc2nc(-c3cccc(F)c3)nc3c2c(=O)n(C)c(=O)n3C)no1 -5.46%
Cc1ccc(-c2nc3cc(NC(=O)Cc4ccc(Cl)cc4)ccc3o2)cc1 6.74%
COc1ccc2c(Sc3ccc(C)cc3)c(C(=O)NCC(C)c3ccccc3)[nH]c2c1 (stereo not given) 14.1%
CCOC(=O)c1ccc(N2CC3=C(C2=O)C(c2ccc(OC)cc2)NC(=O)N3C)cc1 (stereo not given) 1.57%
Nc1c(C(=O)Nc2ccc(C(F)(F)F)cc2)sc2nc(-c3cccs3)ccc12 -8.96%
COc1ccccc1-c1nnc(C2CCN(S(=O)(=O)c3ccc(CC(C)C)cc3)CC2)o1 -23.8%
O=C(CCc1ccccc1)NCc1ccc2c(c1)CCN2C(=O)c1ccccc1 12.9%
Cn1cc(C(=O)O)c(=O)c2cc(S(=O)(=O)N3CCOCC3)ccc21 -26.8%
CC(=O)N1CCc2c(sc3c2c(=O)n(CCc2ccccc2)c(=O)n3CC(=O)Nc2ccccc2F)C1 -22.5%
COc1ccccc1NC(=O)c1oc2ccccc2c1NC(=O)Cc1cccs1 -6.77%
COc1cccc(NC(=O)Cn2c(=O)n(-c3ccccc3)c(=O)c3ccc(C(=O)NCc4ccc5c(c4)OCO5)cc32)c1 -24.4%
COc1ccc(-n2c(SCC(=O)c3ccc(Cl)cc3)nc3c([nH]c4ccccc43)c2=O)cc1 -0.121%
COc1ccccc1N1CCN(c2ccc(=O)n(CC(=O)Nc3cc(F)ccc3C)n2)CC1 -15.1%
Cc1ccc2oc(=O)c3cc(C(=O)Nc4ccc(C)c(F)c4)sc3c2c1 -8.43%
CCc1nnc(NC(=O)CSc2nc3c([nH]c4ccccc43)c(=O)n2-c2ccc(F)cc2)s1 -19.4%
COc1ccccc1/C=C/c1onc(C)c1S(=O)(=O)N1CCC(C(=O)N2CCC(C)CC2)CC1 -2.81%
Cc1c(Cl)cccc1NC(=O)c1cc(S(=O)(=O)N2CCCCC2)cn1C -24.9%
Cc1cccn2c(=O)cc(COc3ccc(NC(=O)C(C)C)cc3)nc12 -6.9%
Cc1ccc(-n2nc(C)c3c(C)cc(=O)n(CC(=O)Nc4cc(Cl)ccc4C)c32)cc1 -7.78%
Nc1ccc2oc(-c3ccccc3Br)nc2c1 -26%
Cc1ccccc1NC(=O)CSc1nc2ccc(NC(=O)CCc3ccccc3)cc2s1 -17.1%
COC(=O)c1sccc1S(=O)(=O)N(CC(=O)Nc1ccccc1C)c1ccc(Cl)cc1 -27.8%
COc1ccc(N(CC(=O)N2CCN(c3ccccc3F)CC2)S(=O)(=O)c2c(C)noc2C)cc1 -13.2%
COc1ccccc1-c1nc2c(c(SCc3cc(C)ccc3C)n1)Cc1c(CO)cnc(C)c1O2 -35%
Cc1ccc(CNC(=O)c2cc3c(=O)oc4ccc(C)cc4c3s2)cc1 -8.97%
